Reference: PubChem BioAssay AID1645886 (National Center for Advancing Translational Sciences (NCATS), 2021)
Values joined by “and” are separate entries in the source; they are usually repeats but may differ in a detail not shown here. Equal values may be shown once. The campaign covered roughly 16,000 compounds. About 260 (1.6%) were called active. The shares of active, inactive and inconclusive entries below differ from those in the screen. Calls come from the whole dose curve; as a rule, active = well fitted inhibition curve with a large enough effect; inconclusive = small, poorly fitted or top-dose-only effect; inactive = no such curve, though single readings can be large or run the other way. Where the call is inconclusive, the potency comes from a doubtful curve fit. Some structures have more than one record in an assay (separate samples or runs), and their calls can disagree.
Note: nearly all actives have a fitted effect of over 40% in size.
Potency is the fitted concentration of half-maximal effect; tags give direction and shape of the fitted curve.

These compounds were tested against Rap guanine nucleotide exchange factor 4 (Homo sapiens) (UniProt Q8WZA2) (assay: Validation qHTS for antagonist of cAMP-regulated guanine nucleotide exchange factor 4 (EPAC2)). Settings: EPAC2 Rap1B BODIPY-GDP exchange, fluorescence; activity, negative = inhibition: at 112 µM (top of the series).
UniProt Q8WZA2, sequence (Q8WZA2 whole entry, looked up): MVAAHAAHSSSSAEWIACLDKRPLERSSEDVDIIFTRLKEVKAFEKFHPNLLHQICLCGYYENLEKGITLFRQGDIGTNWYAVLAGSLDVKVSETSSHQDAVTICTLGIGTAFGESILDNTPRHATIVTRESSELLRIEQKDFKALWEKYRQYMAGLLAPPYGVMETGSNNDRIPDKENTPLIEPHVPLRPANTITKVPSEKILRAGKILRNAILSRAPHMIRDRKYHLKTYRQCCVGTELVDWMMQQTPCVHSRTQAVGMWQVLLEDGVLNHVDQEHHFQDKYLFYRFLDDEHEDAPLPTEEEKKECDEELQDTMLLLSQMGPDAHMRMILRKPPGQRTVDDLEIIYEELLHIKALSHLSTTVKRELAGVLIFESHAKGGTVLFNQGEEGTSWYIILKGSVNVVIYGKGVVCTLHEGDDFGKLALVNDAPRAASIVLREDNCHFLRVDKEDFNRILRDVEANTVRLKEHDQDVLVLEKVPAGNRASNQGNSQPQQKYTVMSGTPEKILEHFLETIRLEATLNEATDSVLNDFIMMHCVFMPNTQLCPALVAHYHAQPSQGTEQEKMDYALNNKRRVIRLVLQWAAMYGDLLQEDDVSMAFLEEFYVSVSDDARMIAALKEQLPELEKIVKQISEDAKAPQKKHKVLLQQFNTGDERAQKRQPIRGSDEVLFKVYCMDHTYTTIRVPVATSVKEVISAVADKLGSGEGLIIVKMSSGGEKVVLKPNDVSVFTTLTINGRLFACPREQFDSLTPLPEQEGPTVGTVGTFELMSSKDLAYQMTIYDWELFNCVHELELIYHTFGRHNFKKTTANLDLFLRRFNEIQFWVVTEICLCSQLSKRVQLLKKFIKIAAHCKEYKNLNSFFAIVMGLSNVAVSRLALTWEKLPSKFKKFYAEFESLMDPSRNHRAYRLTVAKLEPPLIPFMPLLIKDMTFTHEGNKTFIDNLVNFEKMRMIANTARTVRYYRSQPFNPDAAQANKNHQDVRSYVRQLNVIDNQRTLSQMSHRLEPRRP
In short: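 Normalized against a 6.5 mM cAMP agonist control, compounds were tested on 100 nM EPAC2 exchanging Rap1B-bound BODIPY-GDP (250 nM) for 50 uM GDP. Fluorescence drop (ex 480, em 540 nm) was tracked at room temperature over 30 min at 5-min intervals.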
In the case of `COc1ccc2c(c1)c(CC(=O)N1CCOCC1)c(C)n2C(=O)c1ccc(Cl)cc1`, the Potency is reported as inconclusive: 50.1 µM [inhibitor, partial curve].
`O=c1c(-c2ccccc2)nc2cnc(Oc3ccccc3)nc2n1C[C@H]1CCCO1` was tested, and the Potency was inconclusive: 89.1 µM [inhibitor, partial curve].
With `COc1ccc(CN2Cc3ccccc3OC(c3ccccc3OC)C2)cc1O` (stereo unspecified) the Potency was inconclusive: 89.1 µM [inhibitor, single point].
In the case of `Cc1coc2c1C(=O)C(=O)c1c-2ccc2c1CCCC2(C)C`, the Potency is reported as inconclusive: 89.1 µM [inhibitor, single point] and inconclusive: 44.7 µM [inhibitor, full curve, poor fit].
For `Cc1ccccc1CN1CCc2nnc(C(C)NC(=O)c3cc(F)ccc3F)n2CC1` (stereo unspecified), the Potency was inconclusive: 100 µM [inhibitor, partial curve, poor fit].
`CNCCCC12CCC(c3ccccc31)c1ccccc12` was tested, and the Potency was inconclusive: 11.2 µM [inhibitor, partial curve, poor fit].
In the case of `CCCC[C@H]1COCCS(=O)(=O)N1Cc1ccc(F)cc1`, the Potency is reported as inconclusive: 56.2 µM [inhibitor, partial curve, poor fit].
With `O=c1c(-c2ccc(F)c(F)c2)nc2cncnc2n1-c1ccccc1` the Potency was inconclusive: 15.8 µM [inhibitor, full curve, poor fit].
With `COC(=O)C1CCN(Cc2ccc3c(c2)CN(C(=O)c2cc4cc(F)ccc4[nH]2)CCO3)CC1` the Potency was inconclusive: 100 µM [inhibitor, single point].
In the case of `CCCCCCCC/C=C\CCCCCCCC(=O)NCCO`, the Potency is reported as inconclusive: 89.1 µM [inhibitor, single point].
With `Cc1ccccc1-c1nc(-n2ccnc2)c2ccccc2n1` the Potency was inconclusive: 28.2 µM [inhibitor, partial curve, poor fit].
In the case of `COc1ccc(C(=O)N2CCC3(CC2)CN(CC(C)C)C3)cc1`, the Potency is reported as inconclusive: 50.1 µM [inhibitor, partial curve, poor fit].
In the case of `CCn1c(-c2ccccc2F)nc2cc(NC(C)=O)cc(C(=O)NC(c3ccccn3)C(F)(F)F)c21` (stereo unspecified), the Potency is reported as inconclusive: 100 µM [inhibitor, single point].
In the case of `CN(C)c1cccc2ccccc12`, the Potency is reported as inconclusive: 56.2 µM [inhibitor, partial curve, poor fit].
For `CCCCC[C@H]1CN(CCc2ccccc2)C(=O)[C@@H]1CC(=O)NCc1ccc(OC)cc1`, the Potency was inconclusive: 0.794 µM [inhibitor, full curve, poor fit].
For `CC(=O)OC1CC[C@]2(C)C(CC(OC(C)=O)[C@@]3(C)C4=CC(=O)OC(c5ccoc5)[C@]4(C)CCC23)C1(C)C` (stereo partly specified), the Potency was inconclusive: 14.1 µM [inhibitor, partial curve] and inconclusive: 39.8 µM [inhibitor, partial curve, poor fit].
For `CC(C)NC[C@H](O)COc1cccc2ccccc12`, the Potency was inconclusive: 89.1 µM [inhibitor, partial curve, poor fit].
In the case of `CCCS(=O)(=O)NCc1c(C)ncc2c1CCN(C(=O)c1c(F)ccc(F)c1F)C2`, the “activity, negative = inhibition” value is reported as inactive: 6.53%.
For `COc1ccc(/C=C/C(=O)NCC2Cc3cccc(-c4nc(C)cnc4C)c3O2)cc1OC` (stereo unspecified), the “activity, negative = inhibition” value was inactive: 3.37%.
In the case of `Fc1ccc(N2CCN(Cc3ccc4c(c3)CN(Cc3cccn3-c3ncccn3)CCO4)CC2)cc1`, the Potency is reported as inconclusive: 56.2 µM [inhibitor, partial curve, poor fit].
In the case of `O=C1CCC[C@@H]2CC(Nc3ccccc3)C[C@@H]3CCN1[C@H]23` (stereo partly specified), the Potency is reported as inconclusive: 17.8 µM [inhibitor, single point].
In the case of `COC1=C(C(=O)O)N2C(=O)[C@@H](NC(=O)[C@H](N)C3=CCC=CC3)[C@H]2SC1`, the “activity, negative = inhibition” value is reported as inactive: 9.58%.
With `O=[N+]([O-])c1cccc(CN2C[C@@]34C=C[C@@H](C[C@@H]3S2(=O)=O)O4)c1` the Potency was inconclusive: 63.1 µM [inhibitor, partial curve, poor fit].
With `O=C(c1ccco1)N1CCC[C@@]2(CCN(Cc3ccccc3)C2)C1` the Potency was inconclusive: 79.4 µM [inhibitor, partial curve, poor fit].
`O=C(O)c1ccc(S(=O)(=O)N(Cl)Cl)cc1` was tested, and the activity, negative = inhibition was inconclusive: -34.2% [inhibitor].
With `O=C(Oc1ccccc1C(=O)O)c1ccccc1O` the Potency was inconclusive: 56.2 µM [inhibitor, partial curve, poor fit].
For `CC(=C\c1ccccc1)/C=C1/SC(=S)N(CC(=O)O)C1=O`, the Potency was inconclusive: 4.47 µM [inhibitor, partial curve, poor fit].
`Cc1ccc(-n2cc(CCCCCCCCC(=O)O)nn2)cc1` was tested, and the Potency was inconclusive: 10 µM [inhibitor, full curve].
With `C=C[C@@H]1c2ccccc2N(S(=O)(=O)c2ccc(C)cc2)[C@H](c2ccccc2C(F)(F)F)C1(C#N)C#N` the Potency was inconclusive: 70.8 µM [inhibitor, partial curve, poor fit].
In the case of `COc1ccc(NC(=O)N2CCCC3(CCN(C(=O)c4ccco4)CC3)C2)cc1`, the “activity, negative = inhibition” value is reported as inactive: -23.6%.
For `CN1CCCCCC1C(=O)NCC1Cc2cc(-c3cnccn3)ccc2O1` (stereo unspecified), the Potency was inconclusive: 89.1 µM [inhibitor, single point].
For `COC(=O)c1c(C)[nH]c(C)c1C(=O)c1ccccc1Cc1ccccc1`, the Potency was inconclusive: 50.1 µM [inhibitor, partial curve, poor fit] and inconclusive: 89.1 µM [inhibitor, single point].
`COc1ccc(NC(=O)N2CCCC3(CCN(C(=O)c4cc(C(F)(F)F)cc(C(F)(F)F)c4)CC3)C2)cc1` was tested, and the Potency was inconclusive: 56.2 µM [inhibitor, partial curve, poor fit].
`CN(Cc1ccco1)c1nc(-c2ccccc2C(F)(F)F)nc2ccccc12` was tested, and the Potency was inconclusive: 56.2 µM [inhibitor, partial curve, poor fit].
With `COc1cc(-c2noc(C)c2-c2ccc(N(C)C)nc2)cc(OC)c1OC` the Potency was inconclusive: 79.4 µM [inhibitor, single point].
With `Cc1cc(C)nc(S[C@H]2C[C@@H](C(=O)N3CCN(c4ccccc4F)CC3)N(Cc3ccccc3C(F)(F)F)C2)n1` the Potency was inconclusive: 56.2 µM [inhibitor, single point].
For `CC[C@H](NC(=O)c1c(C)c(-c2ccccc2)nc2ccccc12)c1ccccc1`, the Potency was inconclusive: 31.6 µM [inhibitor, full curve].
For `COc1ccc(-c2c(-c3ccc4c(c3)OCO4)noc2C)cn1`, the Potency was inconclusive: 100 µM [inhibitor, partial curve, poor fit].
With `C=C1CC[C@H](O)C/C1=C/C=C1\CCC[C@]2(C)C([C@H](C)CCCC(C)(C)O)CC[C@@H]12` (stereo partly specified) the Potency was inconclusive: 70.8 µM [inhibitor, partial curve, poor fit].
With `O=C(Nc1ccc(C(F)(F)F)cc1[N+](=O)[O-])O[C@H]1[C@H](Cc2ccccc2)NS(=O)(=O)[C@H]2C[C@@H]3C=C[C@]12O3` the Potency was inconclusive: 3.98 µM [inhibitor, full curve].
In the case of `O=C1O/C(=C/Br)CCC1c1cccc2ccccc12` (stereo unspecified), the Potency is reported as active: 3.98 µM.
With `CCN1CCCC1CNC(=O)c1cnn(-c2nccc(-c3cc(OC)ccc3OC)n2)c1C` (stereo unspecified) the Potency was inconclusive: 50.1 µM [inhibitor, partial curve, poor fit].
`COc1cc(=O)n2c(c1C(=O)N(C)Cc1nonc1C)CCN(Cc1ccc(F)cc1)CC2` was tested, and the Potency was inconclusive: 44.7 µM [inhibitor, partial curve, poor fit].
`CCCCCCCCCCCC(=O)OCC(O)CO` (stereo unspecified) was tested, and the Potency was inconclusive: 89.1 µM [inhibitor, single point].
For `Cc1ccccc1C1(CC(=O)N2CCCCC2c2cccnc2)CC(=O)N(C2CCCC2)C1=O` (stereo unspecified), the Potency was inconclusive: 25.1 µM [inhibitor, partial curve, poor fit].
For `C=CCCCCCCCCCCCC(O)CC(O)COC(C)=O` (stereo unspecified) (tested in a mixture with another compound), the Potency was inconclusive: 44.7 µM [inhibitor, partial curve].
`C#C[C@]1(O)CC[C@H]2[C@@H]3CCc4cc(O)ccc4[C@H]3CC[C@@]21C` was tested, and the “activity, negative = inhibition” value was inactive: -19.6%.
For `CCCCN(CCCC)CCC(O)c1cc2c(Cl)cc(Cl)cc2c2cc(C(F)(F)F)ccc12` (stereo unspecified), the Potency was inconclusive: 0.501 µM [inhibitor, full curve, poor fit].
With `O=C(O)c1ccc(OCCn2ccnc2)cc1` the “activity, negative = inhibition” value was inactive: -5.56%.
With `COc1ccc(CNC(=O)C[C@H]2C(=O)N(Cc3ccc(OC)cc3)C[C@@H]2Cc2ccccc2)cc1` the Potency was inconclusive: 50.1 µM [inhibitor, partial curve, poor fit].
For `COc1cccc(C=NC=Nc2cccc(OC)c2)c1`, the Potency was inconclusive: 63.1 µM [inhibitor, partial curve, poor fit].
In the case of `Cc1cc(OCCOCC[N+](C)(C)Cc2ccccc2)ccc1C(C)(C)CC(C)(C)C`, the Potency is reported as inconclusive: 28.2 µM [inhibitor, partial curve, poor fit].
In the case of `Cc1nc(C)c(CC(=O)N2CCOc3ccc(CN4CCN(c5ccccn5)CC4)cc3C2)s1`, the “activity, negative = inhibition” value is reported as inactive: -0.149%.
For `COc1ccc2c(c1)CCc1cnc(-n3ncc(C(=O)N(C)CCc4ccccn4)c3C)nc1-2`, the “activity, negative = inhibition” value was inactive: -6.44%.
With `COc1ccc(C(=O)c2ccccc2)c(O)c1` the Potency was inconclusive: 35.5 µM [inhibitor, partial curve, poor fit].
`O=c1c(-c2ccc(Cl)cc2)nc2cnc(N3CCNCC3)nc2n1Cc1ccc(F)cc1` was tested, and the Potency was inconclusive: 56.2 µM [inhibitor, partial curve, poor fit].
